# The supplement of paper PMC3334620
# The full ranking holds about 33,000 sequences; the median of “E-score (-0.5 to 0.5)” is about -0.013, and the highest 2% start at about 0.3. This is one part of the list.
# Target: T1, Msn1 (UniProt P22148)
# T1 sequence: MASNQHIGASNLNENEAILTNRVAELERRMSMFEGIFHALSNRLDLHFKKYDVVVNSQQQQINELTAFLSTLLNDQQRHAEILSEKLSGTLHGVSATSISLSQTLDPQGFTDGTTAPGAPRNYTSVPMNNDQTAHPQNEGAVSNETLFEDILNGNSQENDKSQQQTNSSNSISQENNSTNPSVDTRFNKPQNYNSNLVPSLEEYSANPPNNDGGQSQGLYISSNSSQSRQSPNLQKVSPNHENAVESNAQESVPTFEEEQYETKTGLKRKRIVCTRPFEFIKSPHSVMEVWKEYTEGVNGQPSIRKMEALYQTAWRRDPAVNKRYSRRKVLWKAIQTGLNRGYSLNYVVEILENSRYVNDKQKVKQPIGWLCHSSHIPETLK
# Assay: PBM E-score (8-mer binding enrichment) (E-score (-0.5 to 0.5)); higher = stronger / more preferred TF binding; most listed sequences are background and not binding sites
# Settings: protein concentration: 200 nM; construct: GST-full length
# Method in brief: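 Universal all-10-mer Agilent arrays, fresh or stripped once, were converted to double-stranded form by primer extension. GST-tagged yeast transcription factors from PURExpress in vitro transcription/translation, full-length or DNA-binding domain only, were applied at about 100-200 nM and detected with fluorescent anti-GST. After masliner normalisation, the Universal PBM Analysis Suite scored each ungapped eight-base word together with its reverse complement by E-score.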
row,Sequence,PBM E-score
1,AAATTAGA,0.248
2,TCCAATCA,0.0389
3,CTCGTTGA,-0.0736
4,CACCGGAA,0.0679
5,CCATGTGA,-0.239
6,ATTGACAG,-0.0324
7,GAAAGTCC,0.283
8,GAATTCAC,0.0269
9,GTATCCAA,-0.0751
10,TATTGGGA,0.06
11,GGAGGACC,-0.25
12,AGATTTTA,-0.099
13,AGACTCAG,-0.146
14,AGGACTGC,-0.198
15,CACCGATG,0.0734
16,CCCGATTA,0.254
17,CTTCGGGC,-0.0967
18,GGTACTAC,-0.00851
19,GCGAAGCA,-0.0391
20,CGCAGTTC,0.0141
21,AGTAGCCC,-0.101
22,AGTGGCAT,0.0641

row,Sequence,PBM E-score
1,CCACTAAG,0.112
2,CGGACTAA,0.248
3,AGTTTTGC,0.0902
4,TAGCTAAA,-0.0924
5,GGGAAGAC,-0.0284
6,AGGGATGG,-0.288
7,CACACCAG,-0.0684
8,ACGACGCA,-0.00086
9,AATCCCCA,-0.0837
10,CTGCACAG,-0.107
11,ATTATATA,0.262
12,AGGCCGCA,-0.207
13,CCGACACA,-0.0231
14,CGATATCA,-0.0294
15,GCCGGTGA,-0.18
16,AATCGCCG,-0.00799
17,CACCGTCC,0.00606
18,ACTGTTCA,-0.151
19,AGGTCCAT,0.122
20,CACTCACA,-0.175
21,TCGCTAAA,0.0756
22,AACGCAGC,-0.021

row,Sequence,PBM E-score
1,AAGGTAGT,-0.151
2,CGCTTGAG,-0.0838
3,AAGCGACA,0.222
4,GACACATA,0.361
5,AGGAACTC,-0.173
6,AGTAACGA,0.028
7,AATTTCGT,0.188
8,AGATAAAA,0.183
9,TAGATCAA,0.0543
10,CACATTAA,-0.0475
11,CAATCTGG,-0.0689
12,AAAGTGAT,0.0511
13,GACCCACC,-0.112
14,GATACCCA,0.0835
15,AACGCTCC,0.00232
16,ACTAAAGC,0.147
17,AAAGCGTA,-0.135
18,GCACGATA,-0.012
19,ATCAGGCA,-0.108
20,ACCTCTCT,-0.18
21,AGCCTGAC,-0.218
22,GCATGTAA,-0.12

row,Sequence,PBM E-score
1,AAACAGCC,-0.194
2,ATGATTGG,0.0179
3,GCTACGAA,-0.0787
4,ACTCATCC,-0.00862
5,CATACCTC,0.0928
6,CACGTATA,-0.0381
7,CCTGGGCA,-0.239
8,ATTAAGCG,-0.00091
9,CGTCCGGA,0.331
10,ACGTCTAT,-0.0785
11,AGCGTTCA,-0.11
12,GGCAAACC,-0.244
13,CATCGGAC,0.188
14,AAATCTGA,0.0408
15,AGCTATGA,0.003
16,GCGGTGAA,-0.0785
17,TAACCTCA,-0.0824
18,CCATCAAG,-0.193
19,ACCATCCA,-0.107
20,AGAAAACG,0.00718
